# According to PubChem BioAssay AID1346428 (National Center for Advancing Translational Sciences (NCATS), 2018):
# Hit rate of the full screen: of about 48,000 compounds, about 1,200 (2.5%) were called active. Another 2% or so got no clear call; they are omitted.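 Rule for the calls: active = activation of at least 60% and not above a set upper limit (about 1 call in 100 departs from these limits); inconclusive = activation of 40% to 60%, or above that upper limit; inactive = activation under 40%.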 Some of the results follow.
# Molecular target: Probable G-protein coupled receptor 32 (Homo sapiens) (UniProt O75388)
# Assay: qHTS for Agonists of Human Resolvin D1 Receptor DRV1; note: 0% is about no effect
# Conditions: CHO-K1 GPR32 beta-arrestin PathHunter luminescence, 90 min; at 76.9 µM; hits give high values; zero percent set by DMSO-only wells
# Summary of the method: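 PathHunter beta-arrestin recruitment in CHO-K1 cells stably expressing ProLink-tagged GPR32. Cells were exposed to compound for 90 min at 37 C, then chemiluminescence was read after 1 h detection at ambient temperature; DMSO served as basal control.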
# Sequence of UniProt O75388 (O75388 whole entry, looked up): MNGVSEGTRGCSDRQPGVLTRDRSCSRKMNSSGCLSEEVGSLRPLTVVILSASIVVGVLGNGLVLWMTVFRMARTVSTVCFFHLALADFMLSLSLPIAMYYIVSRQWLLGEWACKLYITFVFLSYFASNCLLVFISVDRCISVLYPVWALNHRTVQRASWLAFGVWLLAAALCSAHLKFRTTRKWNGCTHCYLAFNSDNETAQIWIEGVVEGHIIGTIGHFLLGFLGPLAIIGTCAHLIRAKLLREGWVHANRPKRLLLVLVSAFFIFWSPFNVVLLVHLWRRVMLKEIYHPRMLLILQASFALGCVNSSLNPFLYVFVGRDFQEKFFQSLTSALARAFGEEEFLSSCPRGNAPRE
row,Compound,activation
1,O=C(NCCc1ccccc1)c1ccc2c(c1)N(Cc1ccccc1)C(=O)c1ccccc1S2(=O)=O,active: 92.4%
2,COc1ccc(CNC(=O)c2cc(=O)[nH]c3ccc(S(=O)(=O)N4CCCC4)cc23)c(OC)c1,inactive: -4.53%
3,O=C(NCCc1ccccc1)C1CCN(Cc2cc3ccccc3n2Cc2cccc(Cl)c2)CC1,inactive: -67.8%
4,CC(=O)c1cccc(NC(=O)C(CC(C)C)NS(=O)(=O)c2ccc3c(c2)CCN3C(C)=O)c1 (configuration not stated),inactive: -4.88%
5,CCOC(=O)CN(Cc1ccccc1)C(C(=O)NC1CCCCC1)c1ccc(OC)cc1 (configuration not stated),inactive: -14.6%
6,COc1cccc(Nc2sc(C(=O)c3ccc(Cl)cc3)c(N)c2C(=O)NCc2ccc(C)cc2)c1,inactive: -7.39%
7,Cc1cc(NC(=O)CSc2nc(-c3ccccc3C)nc3c2c(=O)n(C)c(=O)n3C)no1,inactive: -10.2%
8,CCOc1cc(C(=O)Nc2cccc3cccnc23)cc(OCC)c1OCC,inactive: -13.6%
9,COc1ccc(Cl)cc1NC(=O)c1ccc2c(c1)CCN2S(C)(=O)=O,inactive: 4.74%
10,CCN(C(=O)Cn1c(=O)oc2cc(S(=O)(=O)N3CCCCCC3)ccc21)c1cccc(C)c1,inactive: -19.6%
11,Cc1cccc(OC(=O)c2snnc2C)c1,inactive: 8.8%
12,Cc1cccc(C)c1Nc1c(-c2ccccn2)nc2ccc(Cl)cn12,inactive: -22.4%
13,Cn1cc(S(=O)(=O)N2CCCCCC2)cc1C(=O)NCc1ccc(F)cc1,inactive: 27.4%
14,O=C(NCc1ccccc1)NC1COc2ccccc2C1 (configuration not stated),inactive: -13.5%
15,O=C(NCCc1ccc(Cl)cc1)c1ccc(Nc2nc3ccccc3n3nnnc23)cc1,inactive: 2.91%
16,CCOc1ccccc1NC(=O)CSc1ncc2c(n1)-c1ccccc1N(CC)S2(=O)=O,inactive: -16.2%
17,COc1ccc(CNCc2ccc(C(=O)O)s2)cc1,inactive: -13.5%
18,CCOc1ccc(NC(=O)c2sc(-n3nc(C)c(CCC(C)C)c3C)nc2C)cc1,inactive: -1.78%
19,COc1ccc(NC(=O)c2nc(SCc3ccc(F)cc3)ncc2Cl)cc1,inactive: -33.6%
20,Cc1cccc(NC(=O)C(=O)NCCCN2CCOCC2)c1,inactive: 14%
21,CCOc1ccccc1CNC(=O)c1ccc2nc(N3CCC(C)CC3)sc2c1,inactive: 5.45%
22,Cc1ccccc1Nc1c(-c2ccc(N3CCOCC3)cc2)nc2cccc(C)n12,inactive: -14.8%

row,Compound,activation
1,CCC(C)Nc1nc2c(c(=O)[nH]c(=O)n2C)n1Cc1ccc(F)cc1 (configuration not stated),inactive: -2.79%
2,CC1=C(c2ccc(C)cc2)S(=O)(=O)NC1=NCc1ccccc1Cl,inactive: -8.17%
3,OCC(O)CN1CCN(c2ccccc2)CC1 (configuration not stated),inactive: 1.61%
4,COC(=O)c1cc2sccc2n1Cc1nc(-c2cccc(Cl)c2)oc1C,inactive: -3.37%
5,C=Cc1ccc(Cn2c(C(=O)O)c(CNCCc3ccco3)c3ccc(C)cc32)cc1,active: 88.5%
6,CCCCOC(=O)CSc1ncnc2sc3c(c12)CCC(C)C3 (configuration not stated),inactive: -0.513%
7,COc1cc(NC(=O)CN2CCCN(Cc3cccc(F)c3)S2(=O)=O)cc(OC)c1,inactive: -2.97%
8,CCOC(=O)c1c(C)oc2nc(C)nc(NCCc3ccc(C)cc3)c12,inactive: -2.32%
9,CCCc1cc(N2CCN(c3ccccc3F)CC2)n2cnnc2n1,inactive: 31.3%
10,COc1ccccc1N1CCN(CCN2C(=O)CC3(CCCC3)CC2=O)CC1,inactive: 6.97%
11,Cc1cccc(C(=O)Nc2ccc(N3CC=C(c4ccccc4C)CC3)c(C(=O)O)c2)c1,inactive: 10.5%
12,Cc1ccc(CN2C(=O)c3ccccc3Sc3ccc(C(=O)N4CCOCC4)cc32)cc1,inactive: -16%
13,CC1=C(C(=O)N2CCCCC2)C(c2ccc(Cl)cc2)n2c(nc3ccccc32)N1 (configuration not stated),inactive: -13.1%
14,CCCNC(=O)c1cc2n(n1)CCCN(Cc1ccc(C)cc1)C2=O,inactive: 2.64%
15,Cc1ccc(NC(=O)c2oc3ccc(S(=O)(=O)N(C)C4CCCCC4)cc3c2C)c(C)c1,inactive: -6.77%
16,COc1ccc(-c2nc(C)c(CCNC(=O)c3ccc(C(F)(F)F)cc3)s2)cc1OC,inactive: 0.68%
17,CCOc1ccc(NC(=O)CSc2oc(-c3ccco3)nc2S(=O)(=O)c2ccccc2)cc1,inactive: -14.8%
18,CC(C)(Oc1ccc(Cl)cc1)C(=O)OCCCOC(=O)C(C)(C)Oc1ccc(Cl)cc1,inactive: -12.3%
19,COc1ccc(CNC(=O)CCCc2nnc3n(C(C)C)c(=O)c4sccc4n23)cc1,inactive: -3.06%
20,O=S(=O)(c1ccccc1)c1nc(-c2ccc(F)cc2)oc1NCc1ccccc1,inactive: -23.2%
21,O=C(COc1ccccc1F)Nc1ccc2nc(SCC(=O)N3CCOCC3)sc2c1,inactive: 17.4%
22,CCOc1ccc(CNC(=O)CSc2c3c(nc4cc(Cl)ccc24)CCCC3)cc1,inactive: -17.7%

row,Compound,activation
1,CCOC(=O)c1cccc(NC(=O)CSc2ncc3c(n2)-c2ccc(Cl)cc2N(Cc2ccccc2)S3(=O)=O)c1,inactive: 7.98%
2,COc1ccccc1CNC(=O)CCS(=O)(=O)c1ccc2c(c1)oc(=O)n2C,inactive: 3.83%
3,Cc1c(-c2nsc(NC(=O)c3cccs3)n2)nnn1-c1ccc(F)cc1,inactive: -4.17%
4,Cc1ccc(S(=O)(=O)Nc2cc(Cl)c3oc4c(c3c2)CCCC4)cc1,inactive: 34%
5,O=C(NCCc1ccccc1)c1ccc2c(c1)nc1n2CCOC1,inactive: -6.94%
6,CCOC(=O)c1oc2c(c1C)-c1nn(Cc3cccc(Cl)c3)cc1CC2,inactive: -8.63%
7,CCN(CC)S(=O)(=O)c1ccc2c(c1)N(CC(=O)Nc1c(C)cccc1C)C(=O)C1CCCN21 (configuration not stated),inactive: -23.5%
8,Cc1c(C)n(Cc2ccccc2)c2ccc(C(=O)N3CCN(c4ccccc4)CC3)cc12,inactive: -33.2%
9,COc1ccc(C(=O)NC(c2ccccc2Cl)c2cc(Cl)c3cccnc3c2O)cc1 (configuration not stated),inactive: -54.1%
10,CN1Cc2sccc2C(c2ccc(O)c(O)c2)C1 (configuration not stated),inactive: -13.3%
11,CC(C)Oc1ccc(C(=O)N(Cc2ccc(N(C)C)cc2)Cc2ccco2)cc1,inactive: -15.1%
12,Cc1ccc(OCC(=O)NCC(=O)OCc2cc(=O)n3nc(C(C)C)sc3n2)cc1,inactive: 6.73%
13,Cc1cc(O)c(C(c2ccccc2)N2CCN(c3ccc(F)cc3)CC2)c(=O)n1Cc1ccco1 (configuration not stated),inactive: -15.5%
14,O=C(c1ccco1)N(Cc1cccs1)c1ccc(F)cc1,inactive: 10.5%
15,Cc1ccc(-n2c(CCC(=O)O)ccc2-c2cccs2)cc1Cl,inactive: -30.4%
16,CC(C)c1nc2ccc(C(=O)NCc3ccccc3Br)cc2o1,inactive: -17.8%
17,CCc1ccccc1NC(=O)c1cc2nc(-c3ccc(Br)cc3)cc(C(F)(F)F)n2n1,inactive: -19.5%
18,Cc1cccc(OCc2cc(=O)n3c4c(sc3n2)CCCC4)c1C,inactive: -9.81%
19,O=C(NCC1CCN(Cc2cccc(Cl)c2)CC1)Nc1ccc(F)c(Cl)c1,inactive: 10.5%
20,COc1cccc(CNC(=O)c2ccc(-n3c(C)cc4c3CCCC4)cc2)c1,inactive: -4.85%
21,Cc1noc(-c2ccccc2OCC(=O)Nc2ccccc2[N+](=O)[O-])n1,inactive: 47.5%
22,CCOc1ccccc1N1CC(c2nc3ccccc3n2CCCOc2ccc(OC)cc2)CC1=O (configuration not stated),inactive: 1.21%

row,Compound,activation
1,COc1ccc(CNC(=O)c2sc3nc[nH]c(=O)c3c2C)cc1,inactive: -5.74%
2,CC(C)OCCCN1C(=O)c2[nH]nc(-c3ccccc3O)c2C1c1ccccc1F (configuration not stated),inactive: -1.9%
3,CCN1CCSc2ccc(C(=O)NCc3cccc(Br)c3)cc21,inactive: -41%
4,CCOc1ccc(NC(=O)CSc2c3c(nc4ccccc24)CCCC3)cc1,inactive: -12%
5,CCCCOc1ccccc1C(=O)N(Cc1sccc1C)C1CCS(=O)(=O)C1 (configuration not stated),inactive: -26.9%
6,COc1ccc2cc(CNc3ccc(C)cc3)c(=O)n(CC(=O)Nc3ccc(C)cc3Cl)c2c1,inactive: -39.6%
7,Cc1ccc(-c2cn3nc(N4CCCC(C(=O)NCc5ccc(F)cc5)C4)sc3n2)cc1 (configuration not stated),inactive: -16.2%
8,CC(C)(C)c1ccc(C(=O)N2CCCC(c3nc4c(nnn4Cc4cccc(F)c4)c(=O)[nH]3)C2)cc1 (configuration not stated),inactive: -2.29%
9,COc1ccc(N2CCN(Cc3nc4c(c(=O)n(C)c(=O)n4C)n3C(C)C)CC2)cc1,inactive: 10.9%
10,Cc1cc(C)cc(NC(=O)Cn2c(=O)n(-c3ccc(C)c(C)c3)c(=O)c3oc4ccccc4c32)c1,inactive: -20.7%
11,COC(=O)c1ccc(NC(=O)CCn2cnnn2)c(C)c1,inactive: -4.11%
12,Cc1ccc2nc(CN3CCN(S(=O)(=O)c4ccc(C(C)C)cc4)CC3)oc2c1,inactive: 3.99%
13,Cc1ccc2oc(-c3cccc(NC(=O)c4cccc5c(Cl)cccc45)c3)nc2c1,inactive: 5.51%
14,CCCCn1c(CCCNC(=O)c2cccc(C)c2)nc2ccccc21,inactive: 37%
15,Cc1nc2cc(-c3cccc(F)c3)nn2c(C)c1CCC(=O)Nc1ccccc1C(N)=O,inactive: -1.46%
16,COc1cc(N)c(Cl)cc1C(=O)NC1CCN(CCCOc2ccc(F)cc2)CC1OC (configuration not stated),active: 63.8%
17,Cc1cccc(NC(=O)c2ccc(CN3CC(=O)N4CCCCC4C3=O)cc2)c1C (configuration not stated),inactive: -17%
18,C[C@H](O)C(=O)C1=Nc2c(nc(N)[nH]c2=O)NC1,inactive: -13.1%
19,COCCNC(=O)Cn1nc(-c2ccc(C)cc2)c2ccccc2c1=O,inactive: -25.9%
20,COc1ccc(CNc2nc(-c3ccc(Cl)cc3)cc(C(F)(F)F)n2)cc1,inactive: -9.77%
21,COc1cccc(Cn2nnc3c(=O)[nH]c(C4CCCN(C(=O)c5ccccc5Cl)C4)nc32)c1 (configuration not stated),inactive: 1.39%
